# Laboratory results from PubChem BioAssay AID463173 (ICCB-Longwood Screening Facility, Harvard Medical School, 2010).
# Hit rate of the full screen: of about 52,000 compounds, about 1,700 (3.3%) were called active. Rule as the data show it: active = survival mostly below about 52% (no sharp cut-off); inactive = mostly above about 56%. The list shows a part of the results.
# System: Wild type
# Assay: growth inhibition of S. aureus wild type versus tarO mutant, primary screen, teichoic acid synthesis inhibitors, RN4220, OD600 (AID 463173)
# Settings: S. aureus RN4220 wild type/DeltatarO growth, OD600, 18 h, active compounds read low, screened at 18.75 µg/mL (by protocol)
row,SMILES,survival
1,Cc1c(Cl)cccc1NC(=O)N1CCC(CN2CCCC2)CC1,inactive: 84%
2,CC(Oc1ccccc1)c1nnc(N)s1 (stereo not drawn),inactive: 106%
3,COc1cccc(-n2nnc3c(sc4nc(C)cc(C)c43)c2=O)c1,inactive: 113%
4,O=C(NN1CC(=O)N(C2CCCC2)C1=O)C(c1ccccc1)c1ccccc1,inactive: 111%
5,CC1=C(c2ccc(C)cc2)S(=O)(=O)N(Cc2ccc(C(=O)NCc3cccc(C)c3)cc2)C1=O,inactive: 93%
6,CCC(Sc1nc2ccccc2c2nc(CCc3c(C)n[nH]c3C)nn12)C(=O)Nc1ccc(F)cc1 (stereo not drawn),inactive: 71%
7,COc1ccccc1CNS(=O)(=O)c1ccc2[nH]c3c(c2c1)CCCCC3,inactive: 117%
8,O=C(NCc1ccccc1Br)C1CCCN(C(=O)N2CCOc3ccccc32)C1 (stereo not drawn),inactive: 85%
9,COCCCNC(=O)Cn1c(=O)n(Cc2ccc(C(=O)NCc3ccc(C)cc3)cc2)c(=O)c2ccccc21,inactive: 72%
10,Cc1ccc(NC(=O)CSc2nc(C)c(Cc3ccccc3)c(=O)[nH]2)cc1,inactive: 57%
11,COC(=O)c1ccc(NC(=O)CSc2nc3ccc(OC)cc3[nH]2)cc1,inactive: 154%
12,O=C(Nc1sc2c(c1C(=O)Nc1ccccc1Cl)CCCC2)c1ccccc1F,inactive: 56%
13,COc1ccc(CCNC(=O)CN(c2ccccc2OC)S(=O)(=O)c2ccc(C)cc2)cc1,inactive: 95%
14,COC(=O)c1c(NC(=O)c2cc(=O)c3ccc(C)c(C)c3o2)sc2c1CCCC2,inactive: 85%
15,COc1ccc(CCNC(=O)Cc2c(C)c3c(cc(C)c4c(C)coc43)oc2=O)cc1,inactive: 98%
16,COc1ccc(-c2cc3nc(-c4ccccc4)cc(C(F)(F)F)n3n2)cc1,inactive: 84%
17,CCNC1CC(=O)N(c2ccc(C(=O)OCC)cc2)C1=O (stereo not drawn),inactive: 111%
18,Cc1ccc(NC(=O)CN2C(=O)CSc3ccc(S(=O)(=O)N4CCCC4)cc32)cc1F,inactive: 99%
19,COC(=O)c1cc(NC(=O)c2oc(=O)c3ccccc3c2-c2ccccc2)cc(C(=O)OC)c1,inactive: 71%
20,Cc1ccc(NC(=O)c2c(NC(=O)c3ccco3)sc3c2CCC(C(C)(C)C)C3)c(C)c1 (stereo not drawn),inactive: 118%
21,CCc1ccc(NC(=O)c2cc(S(=O)(=O)NC3CCCC3)ccc2F)cc1,inactive: 129%
22,COc1cc(OC)c(NC(=O)c2nnn(Cc3ccc(C)cc3)c2N)cc1Cl,inactive: 90%

row,SMILES,survival
1,COc1ccc(Br)cc1CNC(=O)Cn1c(=O)c2cccn2c2ccc(F)cc21,inactive: 85%
2,O=C(Cn1ncc2c3ccccc3n(Cc3ccc(Cl)cc3)c2c1=O)N1CCCCCC1,inactive: 82%
3,O=C(Cc1ccc(F)cc1)NC1CC(=O)N(c2ccc3c(c2)OCCO3)C1 (stereo not drawn),inactive: 73%
4,COc1cccc(-c2cn3c(n2)sc2cc(C(=O)NC4CCCCCC4)ccc23)c1,inactive: 78%
5,CC1Cc2ccccc2N1C(=O)C1CCN(S(=O)(=O)c2ccc(-n3cnnn3)cc2)CC1 (stereo not drawn),inactive: 101%
6,CCC(C)c1ccc(OCC(=O)Nc2cccc(-c3nc4ncccc4o3)c2)cc1 (stereo not drawn),active: 6%
7,CCOc1ccc(NC(=O)c2oc3ccccc3c2NC(=O)Cc2ccc(F)cc2)cc1,inactive: 89%
8,Cc1ccccc1Cn1cc(CCC(=O)NC(C)c2ccccc2)c2ccccc21 (stereo not drawn),inactive: 84%
9,Cc1cc(C)c2oc(-c3cccc(NC(=O)c4ccc(Br)o4)c3)nc2c1,inactive: 45%
10,O=C(NCC(c1cccs1)S(=O)(=O)c1cccs1)c1ccccc1F (stereo not drawn),inactive: 70%
11,Cc1ccccc1NC(=O)CCC(=O)N1CCSc2ccccc21,inactive: 90%
12,Cc1ccc(S(=O)(=O)N(CC(=O)Nc2ccc(C(C)C)cc2)Cc2ccccc2)cc1,inactive: 76%
13,CC(=O)N1c2ccc(S(=O)(=O)NCC3CCC(C(=O)NC(C)(C)C)CC3)cc2CC1C (stereo not drawn),inactive: 97%
14,Clc1ccccc1N1CCN(c2ncnc3c2c(-c2ccccc2)cn3-c2ccccc2)CC1,inactive: 99%
15,CCN(CC)c1nn2c(=O)c(C(=O)NCc3ccc(OC)cc3OC)cnc2s1,inactive: 70%
16,Cc1ccc(-n2nc3ccc(NC(=O)c4oc5ccccc5c4C)cc3n2)cc1,inactive: 62%
17,CCOC(=O)c1[nH]c2ccccc2c1NC(=O)c1ccccc1OCC,inactive: 94%
18,COc1ccccc1CNC(=O)c1ccccc1NC(=O)c1nsc2ccccc12,inactive: 72%
19,O=C(Nc1ccc2c(c1)CCCN2C(=O)c1cccs1)c1cccc(C(F)(F)F)c1,inactive: 74%
20,O=C1COc2ccccc2N1Cc1c(F)cccc1Cl,inactive: 106%
21,Cc1nc2ccc(Br)cn2c1NC(C)(C)C,inactive: 110%
22,Clc1cccc(-n2ncc3c(NC4CCCCC4)ncnc32)c1,inactive: 124%

row,SMILES,survival
1,CCOc1ccc(-c2nnc(SCC(=O)NC3CCCC3)nc2-c2ccc(OCC)c(OC)c2)cc1OC,inactive: 78%
2,O=C(Nc1ccccc1F)c1nc(S(=O)(=O)Cc2ccccc2F)ncc1Cl,inactive: 18%
3,CCN(C(=O)c1noc2c1COc1ccc(C)cc1-2)c1cccc(C)c1,inactive: 84%
4,CC(C)(C)OC(=O)N1CCC(c2c(C(=O)NCCN3CCC(Cc4ccccc4)CC3)cnn2-c2cccc(Cl)c2)CC1,inactive: 127%
5,Cc1cccc(N2CCN(C(=O)c3cc(S(=O)(=O)N4CCC(C)CC4)cn3C)CC2)c1C,inactive: 49%
6,Cc1cccc(N2CCCC2=Nc2ccc(Br)cc2C#N)c1,inactive: 116%
7,O=C(NCCCN1CCN(c2ccccc2)CC1)c1nnc(Cc2c(F)cccc2Cl)o1,inactive: 77%
8,CCCNC(=O)c1ccc2c(c1)N=C(C)c1c(C)ccc(C)c1S2,inactive: 83%
9,O=C(NCc1ccc(Cl)cc1)C(=O)NCC(c1cccs1)S(=O)(=O)c1ccc(Cl)cc1 (stereo not drawn),inactive: 58%
10,CCOC(=O)C1CCN(C(=O)c2cc3ccc4cccnc4c3[nH]2)CC1,inactive: 88%
11,CCOc1ccc(CCNC(=O)C2CCN(c3ncnc4c3nc3n4CCCCC3)CC2)cc1,inactive: 119%
12,CC1CCCC(C)N1C(=O)CSc1nc2ccccc2n1CC(=O)NC1CCCC1 (stereo not drawn),inactive: 104%
13,Cc1ccccc1-c1noc(-c2ccccc2OCC(=O)Nc2cccc([N+](=O)[O-])c2)n1,inactive: 92%
14,Cc1cccc(C)c1NC(=O)Cn1nnc(S(=O)(=O)c2ccccc2)c1N,inactive: 90%
15,O=C1CN(C(=O)c2ccc(S(=O)(=O)N3CCCC3)cc2)C(c2ccccc2)c2cc(F)ccc2N1 (stereo not drawn),inactive: 90%
16,N#Cc1c(-c2ccccc2)cc(-c2ccccc2)nc1SCC(O)CS(=O)(=O)Cc1ccc(Cl)cc1 (stereo not drawn),inactive: 80%
17,Cn1nnc2cc(C(=O)NCc3ccco3)ccc21,inactive: 104%
18,Cc1cc(NC(=O)Cc2ccccc2)cc(-c2nc3ccccc3o2)c1O,inactive: 82%
19,CCn1cc(/C=C(\NC(=O)c2cc(OC)c(OC)c(OC)c2)C(=O)NCCCn2ccnc2)c2ccccc21,inactive: 103%
20,CC(C)CC(=O)Nc1cccc(-c2nnc(-c3cccc(NC(=O)CC(C)C)c3)o2)c1,inactive: 113%
21,CN(C)c1ccc(Nc2ncnc3c2c(-c2ccccc2)cn3-c2cccc(Cl)c2)cc1,inactive: 136%
22,CCOC(=O)c1cc2c(=O)n3ccccc3nc2n(C(C)C)c1=NC(=O)C(C)(C)Oc1ccc(Cl)cc1,inactive: 64%

row,SMILES,survival
1,Cc1c(C(=O)NCCN(C)C)oc2c1-c1nn(Cc3cccc(Cl)c3)cc1CC2,inactive: 89%
2,Cc1nc(-c2ccc(F)cc2)sc1CCNC(=O)Cc1ccc(F)cc1,inactive: 71%
3,COC(=O)c1ccccc1NS(=O)(=O)c1cc2c(cc1C)N(C)CCO2,inactive: 86%
4,CC(=O)Nc1ccccc1-c1n[nH]c(=S)[nH]c1=O,inactive: 112%
5,Cc1cccc(S(=O)(=O)c2cn(Cc3ccccc3)c3cc(N4CCCCC4)c(F)cc3c2=O)c1,inactive: 99%
6,CCN(Cc1nc(-c2ccc(OC)c(OC)c2)no1)S(=O)(=O)c1ccc(OC)cc1,inactive: 73%
7,COc1ccc(-c2nc3sc(CCNC(=O)c4ccc(Br)o4)c(C)n3n2)cc1,inactive: 73%
8,O=C1C(CO)NC(=S)N1c1ccccc1 (stereo not drawn),inactive: 121%
9,CCC1CCCCN1c1ncnc2c1nnn2Cc1ccccc1Cl (stereo not drawn),inactive: 105%
10,CCN(CC)C(=O)c1c(-c2ccccc2)c(-c2ccccc2)nn(CC)c1=O,inactive: 118%
11,COc1ccccc1N1CCN(C(=O)CN2C(=O)COc3ccc(S(=O)(=O)N4CCOCC4)cc32)CC1,inactive: 98%
12,COc1ccc(CCC(=O)NC2CC(=O)N(c3ccc(F)cc3)C2)cc1 (stereo not drawn),inactive: 83%
13,Cc1cccc(CCNCc2cc3cc4c(cc3[nH]c2=O)OCO4)c1,inactive: 106%
14,O=C(CSc1nc(=O)n(Cc2ccccn2)c2c1CCC2)Nc1ccccc1,inactive: 80%
15,CC(C)(C)OC(=O)N1CCC(c2c(C(=O)NC3CCCCC3)cnn2-c2ccc(F)cc2F)CC1,inactive: 60%
16,COc1cc(CNC(=O)c2cnc(SC)nc2-c2ccccc2)cc(OC)c1OC,inactive: 49%
17,Cc1ccc(S(=O)(=O)C(CNS(=O)(=O)c2cc(F)ccc2F)c2cccs2)cc1 (stereo not drawn),inactive: 75%
18,CSc1ccccc1NC(=O)CCS(=O)(=O)c1nc(-c2ccc3c(c2)OCO3)cc(C(F)(F)F)n1,inactive: 139%
19,CN(C)S(=O)(=O)c1ccc(S(=O)(=O)N2CCC(c3nc4ccccc4s3)CC2)cc1,inactive: 95%
20,CCN1CCN(c2oc(-c3ccc(COc4ccccc4C)o3)nc2C#N)CC1,inactive: 112%
21,O=C(O)c1ccccc1C(=O)Nc1ccc(Br)c2cccnc12,inactive: 62%
22,COc1cccc(CNC(=O)Cn2ncn3nc(-c4cccs4)cc3c2=O)c1,inactive: 89%
